In PubChem BioAssay AID493208 (National Center for Advancing Translational Sciences (NCATS), 2011):
The whole screen tested about 44,000 compounds, of which about 340 (0.77%) were called active. Another 5% or so got no clear call; they are omitted. The call rests on the fitted dose curve; in most records, active means well fitted inhibition curve with a large enough effect; inconclusive means small, poorly fitted or top-dose-only effect; inactive means flat fitted curve, though single readings scatter. Some of the results follow.

assay: Acumen qHTS Assay for Inhibitors of the mTORC1 Signaling Pathway in MEF (Tsc2-/-, p53-/-) Cells: Sytravon; settings: phospho-rpS6 immunofluorescence/PI, 24 h; series mostly up to 38.3 µM; activity change, negative = inhibition: at the top concentration;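 further: plate controls were DMSO for no effect and rapamycin for full effect; nearly all actives have a fitted effect of over 50% in size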
Summary of the method: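 Tsc2-/-, p53-/- mouse embryonic fibroblasts (empty-vector line) exposed to compound 24 hrs at 37 C, fixed, immunostained for phospho-rpS6 and counterstained with propidium iodide. Acumen laser scanning gives % positive cells from Alexa 488/PI ratio, thresholded using 7.5 nM rapamycin; PI count gives viability.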

| SMILES | activity change, negative = inhibition |
| --- | --- |
| Cc1cc(Cl)ccc1OCC(=O)Nc1c(Cl)ccc2nsnc12 | inactive: -10.8% |
| O=C(NCc1cccs1)c1ccc(Cn2c(SCc3ccccc3)nc3cccnc32)cc1 | inactive: -0.829% |
| O=C(Nc1c(C(=O)N2CCN(c3ccccc3)CC2)oc2ccccc12)c1ccc(Br)o1 | inactive: -3.47% |
| COc1ccccc1-c1nc(SCC(=O)NCc2ccc(C)cc2)c2c(=O)n(C)c(=O)n(C)c2n1 | inactive: -15.2% |
| O=C(COc1ccccc1F)Nc1ccc2oc(-c3cccc(Cl)c3)nc2c1 | inactive: 0% |
| Cc1cccc(CN2C(=O)N(c3ccc(C(C)C)cc3)S(=O)(=O)c3ccccc32)c1 | inactive: 0.862% |
| Cc1ccc(-c2ccc(=O)n(CC(=O)Nc3ccc(C)cc3Cl)n2)cc1 | inactive: -2.48% |
| COc1cccc(/C=C/c2nc(C#N)c(NCCc3ccccc3)o2)c1 | inactive: 0.814% |
| COc1ccc(C(=O)Nc2ccc3oc(-c4cccnc4)nc3c2)cc1 | inactive: -1.3% |
| Clc1cccc(N2CCN(c3nc4ccccc4n4nnnc34)CC2)c1 | inactive: 0.173% |
| COc1ccc(C2C=C(c3ccccc3)Nc3nc(NC(=O)c4cccc([N+](=O)[O-])c4)nn32)cc1 (stereo not given) | inactive: 2.1% |
| Cc1c(C(=O)NCc2ccccc2)sc2nc3n(c(=O)c12)CCCCC3 | inactive: 4.1% |
| CCOc1ccc(NC(=O)C2CC(=O)NC(=Nc3ccc(Cl)c(Cl)c3)S2)cc1 (stereo not given) | inactive: -22.7% |
| CCOC(=O)c1ccc(NC(=O)C2CCCN(c3ncnc4onc(-c5ccc(F)cc5)c34)C2)cc1 (stereo not given) | inactive: -6.04% |
| COc1cccc(CNC(=O)c2sc3nc(C)cc(C)c3c2-n2cccc2)c1OC | inactive: 0.166% |
| Cc1ccc(Cl)cc1N1CCN(C(=O)c2ccc(NC(=O)c3nsc4ccccc34)cc2)CC1 | inactive: -8.17% |
| CCOC(=O)COc1ccc(CC)cc1C(=O)c1ccn2nc(-c3ccccc3)cc2n1 | inactive: 1.29% |
| COC(=O)C(Cc1c[nH]c2ccccc12)NC(=O)COc1cccc(C)c1 (stereo not given) | inactive: 13.7% |
| COC(=O)c1sccc1S(=O)(=O)N1CCN(c2cc(Cl)ccc2C)CC1 | inactive: -22.7% |
| COCCNC(=O)CCn1c(=O)c2cc(OC)c(OC)cc2n(CC(=O)Nc2ccc(Cl)cc2F)c1=O | inactive: -5.73% |
| Cc1ccc(-c2n[nH]c3c2C(c2ccc(C(C)(C)C)cc2)NC3=O)cc1 (stereo not given) | inactive: -0.0043% |
| Cc1nn(S(=O)(=O)c2ccc(C(C)(C)C)cc2)c(C)c1S(=O)(=O)N1CCCCCC1 | inactive: 0.852% |
| Cc1ccc(NC(=O)c2oc3ccc(S(=O)(=O)N4CCC5(CC4)OCCO5)cc3c2C)cc1C | inactive: 2.56% |
| CCC1CN(C(=O)N2CCC(C(=O)NCc3ccc(N(C)C)cc3)CC2)c2ccccc2O1 (stereo not given) | inactive: -0.588% |

| SMILES | activity change, negative = inhibition |
| --- | --- |
| COc1cccc(Nc2ccc3cc(S(=O)(=O)N4CCC(C)CC4)ccc3n2)c1 | inactive: -3.64% |
| CCCCC(=O)NCc1nc2cccnc2n1Cc1ccc(OC)cc1 | inactive: -7.98% |
| CCCOc1cccc(C(=O)Nc2cccc(-c3nc4ncccc4o3)c2C)c1 | inactive: -0.133% |
| CCOC(=O)c1ccc(N2CCN(c3cc(C)ccc3C)CC2)c(NC(=O)Nc2ccc(CC)cc2)c1 | inactive: 6.72% |
| CC(=O)c1cccc(NC(=O)C2CCN(C(=O)c3cnn(-c4ccccc4)c3-n3cccc3)CC2)c1 | inactive: -4.63% |
| Cc1c(C(=O)NCc2ccccc2Cl)sc2nc3n(c(=O)c12)CCCCC3 | inactive: -2.22% |
| Cc1cn2c(=O)cc(COC(=O)c3cccc(NC(=O)c4ccc(C(C)(C)C)cc4)c3)nc2s1 | inactive: 7.95% |
| CCn1cc2nc(SCC(=O)Nc3ccc(OC)c(OC)c3)n(Cc3ccc(Cl)cc3)c(=O)c2n1 | inactive: -6.19% |
| COc1ccc(-c2cc(-c3ccc(F)cc3)nc3c2COc2ccc(F)cc2-3)cc1 | inactive: -1.54% |
| CCOc1ccc(-n2c(/C=C/c3cccc(F)c3)nc3cc(OC)c(OC)cc3c2=O)cc1 | inactive: 7.95% |
| COc1ccc(-c2oc3ncn4nc(-c5ccccc5O)nc4c3c2-c2ccc(OC)cc2)cc1 | inactive: -13.4% |
| Cc1ccccc1-c1nc2scc(CCNS(=O)(=O)c3ccccc3)n2n1 | inactive: -11% |
| Cc1nn2c(=O)cc(COC(=O)c3cccc(NC(=O)CCc4ccccc4)c3)nc2s1 | inactive: -10.3% |
| O=C1CN(C(=O)COc2ccc(Cl)cc2)C(c2ccccc2)c2cc(Br)ccc2N1 (stereo not given) | inactive: 0.936% |
| O=C(NCc1ccccc1)C1CCCN(S(=O)(=O)c2cccc3nsnc23)C1 (stereo not given) | inactive: -8.95% |
| CC(C)(C)OC(=O)N1CCC(c2c(C(=O)Nc3ccc4c(c3)OCCO4)cnn2-c2ccc(Cl)cc2)CC1 | inactive: 2.18% |
| CCOc1ccc(NC(=O)CN2C(=O)CC(C)Sc3ccccc32)cc1 (stereo not given) | inactive: 0.632% |
| Cc1ccc2c(c1)C(Cc1ccccc1F)C(=O)N2 (stereo not given) | inactive: -9.93% |
| COc1ccc(CCNC(=O)C(CC(C)C)N2Cc3ccccc3C2=O)c(OC)c1OC (stereo not given) | inactive: -4.19% |
| CCn1cc(CCC(=O)NCc2ccc(C)cc2)c2ccccc21 | inactive: 0.0273% |
| COc1cc2c(=O)n(Cc3ccccc3Cl)c(=O)n(CC(=O)Nc3ccc(C)c(C)c3)c2cc1OC | inactive: 2.07% |
| CC(C)Oc1ccccc1C1C=C(C(=O)O)Nc2ncnn21 (stereo not given) | inactive: -26.2% |
| COc1ccc(CCn2c3c(c(=O)[nH]c2=O)C(NC(=O)c2ccccc2F)(C(F)(F)F)C(=O)N3)cc1OC (stereo not given) | inactive: -9.92% |
| COc1ccc(C)cc1NC(=O)C1CCN(S(=O)(=O)c2ccc3[nH]c(=O)oc3c2)CC1 | inactive: 0% |

| SMILES | activity change, negative = inhibition |
| --- | --- |
| Cc1cccc(C(=O)Nc2cc(-c3nc4cccnc4s3)ccc2C)c1 | inactive: 6.04% |
| COc1ccc(NC(=O)CSc2nc3ccccc3n2CC(=O)N2CCCCC2C)cc1 (stereo not given) | inactive: 14.3% |
| COc1ccc(-c2onc(C)c2C)cc1S(=O)(=O)NCc1ccc(C)o1 | inactive: -10.4% |
| CCOc1cccc(CC(=O)NCc2ccc3c(c2)CCN3C(C)=O)c1OCC | inactive: -0.0543% |
| CCC(C)NC(=O)CCc1c(C)nc2c(c(C)nn2-c2ccc(C)cc2)c1C (stereo not given) | inactive: 2.98% |
| Cc1c(Cl)cccc1NC(=O)CC(c1ccc(F)cc1)N1Cc2ccccc2C1=O (stereo not given) | inactive: -9.06% |
| COCC(C)NC(=O)c1cc2c(=O)n3cccc(C)c3nc2s1 (stereo not given) | inactive: -6.55% |
| CCOC(=O)c1ccc(-c2ccc(/C=C(\C#N)c3nc4ccc(C)cc4[nH]3)o2)cc1 | inactive: 21.8% |
| CCN(c1ccc(Cl)cc1)S(=O)(=O)c1nnc(NC(=O)c2ccccc2C)s1 | inactive: -19% |
| O=C(NCCCc1nc2ccccc2n1Cc1ccccc1Cl)c1ccco1 | inactive: -0.199% |
| CC(CNC(=O)C1CCN(C(=O)N2CCOc3ccc(Cl)cc32)CC1)c1ccccc1 (stereo not given) | inactive: -1.45% |
| O=[N+]([O-])c1cc(-c2nc(-c3ccco3)no2)ccc1NCc1ccccc1 | inactive: -0.286% |
| CCc1ccc(Sc2cc(C(=O)O)c3ccccc3n2)cc1 | inactive: -0.0414% |
| COc1ccc(Cn2c(CO)cnc2SCc2ccc(F)cc2)cc1 | inactive: -8.68% |
| COc1ccc(-n2nc(C(=O)N(C)c3cc(Cl)ccc3OC)c3c4ccccc4n(C)c3c2=O)cc1 | inactive: -0.247% |
| COc1ccc(S(=O)(=O)c2nnn(-c3ccccc3F)c2C)cc1 | inactive: -1.86% |
| Cc1nn(CCCC(=O)NCc2ccc(OC(C)C)cc2)c(=O)c2c1sc1ccccc12 | inactive: 0.47% |
| Cc1ccc(Cc2nc3ccccc3nc2SCC(=O)N2CCN(c3ccccc3)CC2)cc1 | inactive: 10.6% |
| Cc1ccc(NC(=O)CC2Nc3cc(C)c(C)cc3NC2=O)c(C)c1 (stereo not given) | inactive: 1.81% |
| N#CC1=C2SCN(C3CCCCC3)CN2C(=O)CC1c1c(F)cccc1Cl (stereo not given) | inactive: -0.696% |
| Cc1ccc(S(=O)(=O)c2[nH]c(-c3ccccc3)nc2SCCC(=O)O)cc1 | inactive: -0.332% |
| Cc1ccc(N2CC(NC(=O)CCc3ccccc3)CC2=O)cc1C (stereo not given) | inactive: -4.85% |
| CCCn1c(=N)n(CC(O)COc2ccccc2OC)c2ccccc21 (stereo not given) | inactive: -6.84% |
| Cc1cccc(CCNC(=O)c2ccc(CSCc3cccc(Cl)c3)o2)c1 | inactive: 3.09% |

| SMILES | activity change, negative = inhibition |
| --- | --- |
| Cc1cccc(N(Cc2cc3ccccc3[nH]c2=O)C(=O)c2cccc(Cl)c2)c1 | inactive: 6.87% |
| CCOc1ccc(NC(=O)c2c(Nc3ccccc3C)sc(C(=O)c3ccc(Cl)cc3)c2N)cc1 | inactive: -6.88% |
| Cc1nn(CC(=O)N2CCN(c3cccc(C(F)(F)F)c3)CC2)c(=O)c2cc3sccc3n12 | inactive: 1.19% |
| NC(=O)c1ccc(NC(=O)C2CCN(S(=O)(=O)Cc3ccccc3)CC2)cc1 | inactive: 2.14% |
| CCCN1CCN(c2cc3c(cc2F)c(=O)c(S(=O)(=O)c2ccc(CC)cc2)cn3CC)CC1 | inactive: -3.52% |
| CCn1ccc2c(OCC(=O)NCc3ccccc3)cccc2c1=O | inactive: 0.477% |
| CC1Cn2c(C(=O)NCc3cccc(Br)c3)cc3cccc(c32)S1 (stereo not given) | inactive: -5.79% |
| Cc1cccc(-c2nc3c(cnn3-c3ccccc3)c(=O)n2-c2ccc(Br)cc2)c1 | inactive: 9.59% |
| COc1ccc2oc(-c3ccc(C)c(NC(=O)c4ccc(-c5ccccc5[N+](=O)[O-])o4)c3)nc2c1 | inactive: -0.128% |
| Cc1ccc(C(=O)O)cc1NC1(c2ccccc2)C(=O)c2ccccc2C1=O | inactive: 4.68% |
| Cc1c(Cl)cccc1NC(=O)CSc1nc2ncccc2o1 | inactive: 3% |
| COc1ccccc1CNC(=O)C1CCCN(c2nnc(C)c3c(C)n(-c4ccccc4)nc23)C1 (stereo not given) | inactive: 0.738% |
| O=C(CCSCc1cccc(Cl)c1)NCc1ccc(F)cc1Cl | inactive: 5.76% |
| CCc1ccccc1NC(=O)c1sc2nc(C)cc(COC)c2c1N | inactive: -13.1% |
| Cc1ccc2[nH]c(CSc3nnc(NC(=O)c4ccccc4F)s3)cc(=O)c2c1 | inactive: 0.249% |
| C=Cc1ccc(Cn2c(=O)cc(C)c3c(C)nn(-c4ccccc4)c32)cc1 | inactive: -1.24% |
| O=C(NC1(C(F)(F)F)C(=O)Nc2c1c(=O)[nH]c(=O)n2-c1ccccc1)c1ccccc1Cl (stereo not given) | inactive: 1.66% |
| COc1cc(OC)cc(-c2cc3nc(C)c(CCC(=O)Nc4ccc(C(C)=O)cc4)c(C)n3n2)c1 | inactive: -0.0451% |
| CSCCC(NS(=O)(=O)c1ccc2c(c1)oc(=O)n2C)C(=O)Nc1ccc(Cl)cc1 (stereo not given) | inactive: -0.727% |
| COc1ccc(OCC(=O)N(Cc2cccs2)c2ccc(OC)cc2)cc1 | inactive: -8.59% |
| COCc1cc(C)nc2sc3c(c12)NC(c1ccc(O)c(OC)c1)N(c1ccccc1)C3=O (stereo not given) | inactive: 2.46% |
| COc1cc2c(C(=O)N3CCN(c4cccc(C(F)(F)F)c4)CC3)cn(CC(C)C)c(=O)c2cc1OC | inactive: -0.133% |
| COc1ccc2c(c1)cc1c(=O)n(CC(=O)NCCCOC(C)C)nc(C)n12 | inactive: -1.38% |
